Measurements as given in the supplement of paper PMC11417369.
The other results are listed elsewhere or left out.

Test system: PfSIP2 AP2 domain 1 (GST-tagged)
Assay: gcPBM binding intensity (ln(normalized median fluorescence intensity)); higher = stronger DNA binding
Procedure, shortened: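 Plasmodium falciparum DNA-binding domains carrying a GST tag were expressed in E. coli and applied for 1 h, at about 25 μg on average, to an Agilent 4 × 180k array. The array held primer-extended double-stranded 36-bp intergenic genomic probes together with negative controls, and binding took place in 1× PBS with 1% milk, 0.2 mg/ml BSA, 0.5% salmon testes DNA and 0.03% Triton X-100. An Alexa488 anti-GST antibody detected bound protein, and the array was scanned at 488 nm. Binding intensity is taken as the highest Masliner-normalised natural-log median intensity across replicate spots of either probe orientation.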

Row | Sequence | gcPBM binding intensity (ln)
1 | AGGTTAATCGAAATTGCATGTGACGAAAAATCAAAA [TGCATGCA_site666] | 6.91
2 | CAAATACATGGACACACACACATATACAGATATATA [CACACA_site5854] | 7.18
3 | TTTTTTTTTTTTTTCTGTACTTAAAAAGGGGGAGAA [XGTACX_site3799] | 7.66
4 | CAAACATGTTCAAATTGTACAATAGAAAATATATAT [XGTACX_site1557] | 7.22
5 | TTGAAGTTTGATTGTAGTACGAATTGGTAGTTTTTT [XGTACX_site6854] | 6.73
6 | GATTATATATACAAAAGTACATTATAAAAATTTCAT [XGTACX_site4223] | 6.93
7 | CCCTTAAAATATAAATGTACAAAATTATTTGTATGT [XGTACX_site6164] | 6.98
8 | TTCTTTTAATTACGAGTGCATACCATATGACATTAT [GTGCAC_site9819] | 9.09
9 | GTGAATATTAAAAAATGTACACAATTATATGTATAT [XGTACX_site4834] | 6.96
10 | AGAAAAGAGAGAAAAACATGCACATGATATTATAAA [TGCATGCA_site120] | 6.93
11 | ATAAACATCTAGTGCTGTACACAATTTGATTTTTTT [XGTACX_site3110] | 7.03
12 | TTTAATATGTATTTTTTTTTTTTTTTTTTTTTTTTT [XGTACX_negctrl_site440] | 8.68
13 | CTTTTTTTAGTTAGGTGTACAATTTGTTATTATTAG [XGTACX_site1507] | 7.15
14 | TATAACAGGAATTATATATATATATATATATATTAT [CACACA_negctrl_site911] | 7.48
15 | TTTTTTTTTTTTTTTTGTACATATTTCTTATAAGTG [XGTACX_site6459] | 7.09
16 | GGAAGAATATATAGGACACACATACAATAATAAATA [CACACA_site6124] | 7.05
17 | TTTTTTTTTTTTTTTTTGCAATATATTTTAAAAAAG [CACACA_negctrl_site25] | 6.99
18 | TTTTTTTTTTTTTTTTTTTTTTGTGAAACTAAGTAA [CACACA_negctrl_site273] | 6.88
19 | AACTTCTTTTTTATAACACACAAAATATAAATACAA [CACACA_site4313] | 7.31

Row | Sequence | gcPBM binding intensity (ln)
20 | TTTTATATCTAGTTTATATTTCTTAAATAAATAAAT [GTGCAC_negctrl_site245] | 6.78
21 | AACATATAAATGATATGTACACACATTTATATATAT [XGTACX_site7364] | 7.88
22 | CAAATTAAATATTATGCATGTACCAAACATCCTACC [TGCATGCA_site35] | 7.06
23 | TAATACAAAAAGAAAAGTACATGTTAATTATTATTT [XGTACX_site2196] | 6.71
24 | ATATATATATATATATGTACATATTTATTTATTTAT [XGTACX_site5161] | 9.52
25 | AGCACAGACTAATAAACACACACATATATATATATA [CACACA_site8021] | 9.49
26 | CTCATTCTTTTTTGATGTACTTTTTTTTTTTAAGTT [XGTACX_site2875] | 7.31
27 | AAAAGAGAAACATTTACACACAAATATAGATATATG [CACACA_site1027] | 6.84
28 | TTCAATTAAAAAATATGTACGCATAAATTGATATAT [XGTACX_site4289] | 7.33
29 | TTGTATAATTTAACAAGTACAAAATAAATTTGTATA [XGTACX_site5505] | 6.94
30 | TTTTATGGAAAGTGTTGTACATATTTTTGTATATGT [XGTACX_site7356] | 7.12
31 | ATAGTATACGGACACACACACACACCGATATATATA [CACACA_site5032] | 7.44
32 | TTTTATTAATATTATTTATCTTCTCAAAAGATATAT [XGTACX_negctrl_site202] | 6.7
33 | TATCTTATATTTACACGTACGTAGAATTTATAAGTT [XGTACX_site3460] | 7.04
34 | CACACGTATAAATATACACACTAAAATACACGCACA [CACACA_site7876] | 7.87
35 | ATCACAAAATGGAATGTTCTATGATATATATGTATA [XGTACX_negctrl_site460] | 7.02
36 | TGTAAATATTTATTCACACATAATCAATTAGAAAAA [CACACA_site5944] | 6.93
37 | TTGTTACTGTTTTGGTGTACAAAAAAAAAAAATATA [XGTACX_site5762] | 7.4
38 | AAAAAAAAAAAAAACACACACACAATAGTATATAAA [CACACA_site957] | 7.35

Row | Sequence | gcPBM binding intensity (ln)
39 | TACTTACTTACTTACTCACACACATATACAAAGAAA [CACACA_site3348] | 7.45
40 | AATACAGATAATACAACACACAAGTAATATAAACCT [CACACA_site5900] | 6.99
41 | TATATATATTTTTATGCACACACAAAGAAAATTTTC [CACACA_site8931] | 7.48
42 | TATAAATACAGATACACACACACACCGATATATATA [CACACA_site5271] | 7.4
43 | AATATATAAATCTATTGTACATAAAGAGGATAATAA [XGTACX_site1022] | 7.06
44 | GATGATTATATATATACGCACACTTTTTTTTTTTTT [CACACA_site2652] | 7.12
45 | AGTAGCATATTCTATTGTACATATATATATATATAT [XGTACX_site2980] | 9.44
46 | ATTAAAAACGGGTGTACACATATATAAATATATATA [CACACA_site4539] | 7.39
47 | ATATGTATATATGTATGTACGTACAAATTGTTGTAA [XGTACX_site8832] | 7.58
48 | TACAAAATAACTAGCACACATATGTATAAACCTATA [CACACA_site3718] | 6.99
49 | TGTATAAAGATATATACACACATATTTATTTATATA [CACACA_site6493] | 6.88
50 | ACCTGAAGAGTCAAACGTACAAATATTATAAAATGA [XGTACX_site3188] | 6.92
51 | TTAATACATTAAATATGTACTTATATATCTCAACTA [XGTACX_site3997] | 6.75
52 | GTTATATTTTTTTTTTGTACATAATATTGTATTGAC [XGTACX_site6338] | 7.18
53 | TCATCCGTTTTAAGAAGTACATATTTGAACATATAA [XGTACX_site8040] | 7.18
54 | CATAGGATTATACTTTTGGAATATTATTAAATATGT [XGTACX_negctrl_site75] | 6.94
55 | TTTATTTTTTAATGTTGTACAATGTTGTTTAATCAA [XGTACX_site6489] | 7.19
56 | TTTTTTTCTTTTCAAACACACAATTGGTATATATTA [CACACA_site3320] | 6.9
